From the supplement of paper PMC3334620
In all, about 33,000 sequences were measured (“E-score (-0.5 to 0.5)”: median about -0.041, highest 2% from about 0.37 on). The list shows a part of the results.

Each sequence was assayed against T1, Ecm22 (UniProt Q05958) (assay: PBM E-score (8-mer binding enrichment) (E-score (-0.5 to 0.5)); higher = stronger / more preferred TF binding; most listed sequences are background and not binding sites). Settings: protein concentration: 200 nM; construct: GST-full length.
T1 sequence: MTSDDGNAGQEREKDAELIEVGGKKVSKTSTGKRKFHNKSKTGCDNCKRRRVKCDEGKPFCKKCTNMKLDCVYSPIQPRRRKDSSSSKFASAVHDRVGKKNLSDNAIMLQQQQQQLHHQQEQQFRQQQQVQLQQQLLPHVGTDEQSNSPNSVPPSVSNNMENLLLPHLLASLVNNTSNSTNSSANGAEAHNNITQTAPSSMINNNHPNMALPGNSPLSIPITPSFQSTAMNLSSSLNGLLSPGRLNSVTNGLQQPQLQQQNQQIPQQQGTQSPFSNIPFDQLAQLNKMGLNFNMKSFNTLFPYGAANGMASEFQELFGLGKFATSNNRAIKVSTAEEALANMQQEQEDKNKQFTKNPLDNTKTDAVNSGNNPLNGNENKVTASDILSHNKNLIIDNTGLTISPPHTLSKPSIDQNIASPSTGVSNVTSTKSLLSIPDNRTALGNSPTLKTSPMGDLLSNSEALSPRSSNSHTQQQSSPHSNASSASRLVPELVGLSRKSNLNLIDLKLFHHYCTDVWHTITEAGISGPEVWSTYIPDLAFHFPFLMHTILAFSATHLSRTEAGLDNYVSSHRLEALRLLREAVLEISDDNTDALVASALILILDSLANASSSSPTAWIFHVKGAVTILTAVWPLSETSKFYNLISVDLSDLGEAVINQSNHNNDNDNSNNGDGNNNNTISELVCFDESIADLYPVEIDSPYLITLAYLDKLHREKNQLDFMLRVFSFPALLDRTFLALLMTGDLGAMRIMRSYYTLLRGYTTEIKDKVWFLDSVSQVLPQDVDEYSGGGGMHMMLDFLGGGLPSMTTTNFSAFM
Summary of the method: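 Yeast transcription factors, full-length or as DNA-binding domains, were expressed with a GST tag using PURExpress in vitro transcription/translation. At about 100-200 nM they were applied to universal all-10-mer Agilent arrays, double-stranded by primer extension on fresh or once-stripped slides. Fluorescent anti-GST detected bound protein, and masliner normalised the scans. E-scores for ungapped eight-base words, pooled with reverse complements, came from the Universal PBM Analysis Suite.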

| Sequence | PBM E-score |
| --- | --- |
| CGGTCTCA | -0.0713 |
| GTCCCTCA | -0.154 |
| AGTTAAAT | -0.125 |
| GTCAAGCA | -0.324 |
| AGTCGCTG | -0.108 |
| TAAGTGGA | 0.107 |
| ATTCAACC | -0.0471 |
| ACAGTAAG | -0.0829 |
| CCGGAAGC | -0.0224 |
| ATCTCCAA | -0.224 |
| ACGAGGCT | 0.382 |
| CTAATGGA | -0.0389 |
| CTATATTC | 0.132 |
| CCCCGATC | -0.116 |
| GGGCATGA | -0.207 |
| AACGAGGT | 0.447 |
| GTGTTTTA | 0.0978 |
| CCTCCGGA | -0.0181 |
| ATTAACCA | -0.282 |
| AACACCAG | -0.259 |
| CCGAGCAG | 0.184 |
| TAGGGGGA | -0.252 |
| TTTCAAAA | -0.148 |
| AACTGGTA | -0.00065 |
| TCAGCAGA | -0.0491 |

| Sequence | PBM E-score |
| --- | --- |
| GTTCCGAA | 0.295 |
| AGTACACT | 0.0203 |
| ACCTCGGG | 0.206 |
| GAGGGTAA | -0.0594 |
| GTTTTATA | 0.287 |
| ACGATTCT | 0.232 |
| ACTCAATG | -0.0716 |
| GACAGATC | -0.0475 |
| ACAAAACC | 0.133 |
| AACTCCCT | -0.177 |
| CATTTATC | -0.0951 |
| CTGCTCTC | -0.0471 |
| GCATCTAC | -0.134 |
| GACGACCC | -0.108 |
| CGCCGTAC | 0.408 |
| ACTCCGAG | -0.0421 |
| GACTCAGC | -0.146 |
| ACTCAGTA | 0.163 |
| CAACGCCG | -0.036 |
| CCACAAGC | -0.174 |
| CCGTGTAA | 0.00985 |
| AAGGCACC | -0.256 |
| CTACTCAA | -0.154 |
| CAGCTTTC | -0.16 |
| GCGGGGCA | -0.136 |

| Sequence | PBM E-score |
| --- | --- |
| AACAGAAG | -0.111 |
| TAAGGCCA | -0.0816 |
| GCGGTGAC | -0.154 |
| CTACGCGC | -0.0164 |
| GCGATTGA | -0.0601 |
| ACAGTTCT | -0.0264 |
| CGAGCAAG | 0.0574 |
| TCTGCGAA | -0.0512 |
| ACGTGTCA | -0.0367 |
| GCCTATCA | -0.123 |
| ATGTGATC | 0.16 |
| CGTATAAA | 0.477 |
| GCGGGGGA | -0.233 |
| ATCACTTG | -0.0209 |
| GGTCGCAA | 0.196 |
| CCATCACC | -0.139 |
| ATATAGGA | -0.00966 |
| CAGCGTAC | 0.281 |
| CTCCTTTC | -0.229 |
| AAGCTTTA | 0.135 |
| ACCGTGTC | -0.124 |
| CCAAGGCA | -0.0888 |
| GACCCAAC | -0.139 |
| ACACTTCC | -0.209 |
| AATGTCGC | 0.104 |

| Sequence | PBM E-score |
| --- | --- |
| CTCCGGCA | 0.0745 |
| GGGTCGAC | -0.168 |
| ATTTCTCA | -0.172 |
| TCAAATAA | -0.00224 |
| AGGGTATA | 0.0742 |
| ATGGGTTC | -0.124 |
| ACTGTAGA | 0.0469 |
| CGGGGTAC | 0.216 |
| CAGGTCGC | -0.0308 |
| AAGATCTT | -0.0828 |
| CTCTGCAG | -0.0996 |
| CGGCGTCA | -0.0357 |
| CTTTTTAA | -0.158 |
| CCCTTGAC | -0.229 |
| CGATTTCA | -0.00627 |
| CAGGACTA | -0.166 |
| CAACTATG | -0.117 |
| CGTTTCCA | 0.254 |
| CCAGCCGA | -0.0629 |
| ACTATCAA | 0.106 |
| CGGAACTC | 0.154 |
| ACAAGCGG | -0.0363 |
| ACCGTAAT | 0.0766 |
| GATGTCAC | -0.0882 |
| AATAGACC | -0.228 |

| Sequence | PBM E-score |
| --- | --- |
| ATCATGAC | 0.00241 |
| ATGAGAAC | -0.0785 |
| CATGCTTA | -0.111 |
| TCTAATCA | -0.129 |
| GGATTTTA | 0.132 |
| AAGCGTCT | -0.144 |
| CTACGTAG | -0.0163 |
| CACCGTAC | 0.4 |
| AAATCCTG | 0.015 |
| CCTAAAGA | -0.112 |
| GTAATCGA | 0.216 |
| GAGATTCA | -0.0447 |
| TGGAAACA | -0.168 |
| ACGAACAC | 0.318 |
| AGTGGCTA | -0.0843 |
| AGGCCTTA | -0.137 |
| CAATGACG | -0.147 |
| TATTATCA | 0.0569 |
| ATGTAAGC | 0.0707 |
| CCCCCAAA | -0.297 |
| TACCGCAA | 0.0649 |
| CCTCTGAG | -0.133 |
| ACACGTTG | -0.189 |
| AGAAACGA | 0.424 |
| ATGCCCCG | -0.175 |

| Sequence | PBM E-score |
| --- | --- |
| ACATCCCC | -0.184 |
| GAGATCGC | 0.0991 |
| ACGGTGAG | 0.144 |
| CATCCTGA | 0.171 |
| CCATGGTA | -0.00214 |
| AATGTACC | -0.0709 |
| TGAACTAA | -0.0481 |
| AAGTTATC | -0.00283 |
| CTCGAGAG | -0.291 |
| GGATAACC | 0.087 |
| CCTACTCA | -0.216 |
| CGTTTCCC | 0.261 |
| CCCAGTAG | -0.182 |
| GGCATAAA | 0.0318 |
| AAAGACAG | -0.0492 |
| GTAGGAGA | -0.259 |
| AGAGGGCG | -0.108 |
| GACCTGAC | -0.172 |
| ACAGTGAA | -0.166 |
| GAGGCCCA | -0.101 |
| AGCCCCTA | -0.216 |
| AAGCGGAG | -0.0139 |
| CGCACAGA | 0.0318 |
| CGCGACAG | -0.121 |
| CTCCGTAA | 0.187 |

| Sequence | PBM E-score |
| --- | --- |
| CCCATCTC | -0.0895 |
| GAACAACA | 0.0183 |
| AGAAGACG | -0.0345 |
| CGGGCAGA | 0.0491 |
| CACTCAAA | 0.0318 |
| CAGTGCGG | -0.0741 |
| CTTTCTAC | -0.0484 |
| TCATTACA | 0.0242 |
| CTAAACTC | -0.148 |
| AGATTACT | -0.268 |
| ATTACATA | 0.0107 |
| GCGGTGTA | 0.118 |
| CTAGAAAG | -0.263 |
| AGATACCT | -0.116 |
| ATATCAGC | -0.0788 |
| GGGCAATA | -0.0635 |
| TGAATGAA | 0.0741 |
| CGACTTTA | 0.0873 |
| AAAGACGG | -0.175 |
| AACGTGTA | -0.00335 |
| CACCCCGC | 0.0147 |
| ATACAGCC | -0.0802 |
| AATATGGA | -0.0483 |
| ACGCACCT | -0.0713 |
| ATGGACCG | 0.0932 |

| Sequence | PBM E-score |
| --- | --- |
| CCATACCA | -0.0996 |
| CTTGTGAC | -0.272 |
| ATTGAGGC | -0.175 |
| CATGGTTC | -0.00681 |
| AGCTCAGA | -0.0723 |
| CAGGTTCC | -0.265 |
| GGTCTTAC | -0.0646 |
| ACTTGGCC | -0.094 |
| CGCCTTCA | -0.235 |
| AACTGGAA | -0.166 |
| CCGCTTGC | -0.015 |
| CATCAATC | -0.0627 |
| AGTGTGTG | 0.00324 |
| GAGGAACC | -0.0663 |
| CCACTGTC | -0.046 |
| AGTTAAAG | 0.0343 |
| CGCTTCTA | 0.124 |
| GCACACTA | -0.0692 |
| TGCTAGCA | 0.106 |
| CCCGAAGG | 0.045 |
| GCGTTTAA | 0.28 |
| CCGCCTTC | -0.112 |
| AAGTGCGA | 0.129 |
| CGCGCGAA | 0.182 |
| CCAGGAAA | -0.207 |

| Sequence | PBM E-score |
| --- | --- |
| AGAACGCG | 0.186 |
| ACCATCTG | -0.195 |
| CCTTCCTA | -0.202 |
| ACATTCCG | -0.0408 |
| GACGGCGA | 0.0565 |
| AACGAAGT | 0.419 |
| AAGCGAAA | 0.188 |
| ACCGTGGC | -0.113 |
| AATCAAAG | -0.192 |
| ATGATGAC | -0.0358 |
| CTCAGCAA | 0.0438 |
| AACACATG | -0.0819 |
| CAGGGCTA | -0.265 |
| AGTCTATA | 0.0901 |
| AATTAAAG | -0.191 |
| GCTATCCC | 0.00169 |
| ACGCTTTG | 0.0782 |
| AAGCAAAT | 0.0192 |
| ATCACGAG | 0.168 |
